Source: PubChem BioAssay AID1768 (National Center for Advancing Translational Sciences (NCATS), 2009)
The whole screen tested about 270,000 compounds, of which about 620 (0.23%) were called active. This list was built around the results that the source calls inconclusive (neither active nor inactive); the mix of calls is not that of the screen. Calls follow the shape of the dose curve; as a rule, active = well fitted inhibition curve with a large enough effect in the polarisation, with a control signal flat (not every such curve was filed as active); inconclusive = small, poorly fitted or top-dose-only effect, or effect the other way, or a change in a side signal; inactive = no such curve, though single readings can be large or run the other way; the % refers to the polarisation. Where the call is inconclusive, the potency comes from a doubtful curve fit. A note “side channel” means that the fit belongs to a control or component signal, not to the main read-out.

Molecular target: Menin (Homo sapiens) (UniProt O00255)
UniProt O00255, sequence (O00255 whole entry, looked up): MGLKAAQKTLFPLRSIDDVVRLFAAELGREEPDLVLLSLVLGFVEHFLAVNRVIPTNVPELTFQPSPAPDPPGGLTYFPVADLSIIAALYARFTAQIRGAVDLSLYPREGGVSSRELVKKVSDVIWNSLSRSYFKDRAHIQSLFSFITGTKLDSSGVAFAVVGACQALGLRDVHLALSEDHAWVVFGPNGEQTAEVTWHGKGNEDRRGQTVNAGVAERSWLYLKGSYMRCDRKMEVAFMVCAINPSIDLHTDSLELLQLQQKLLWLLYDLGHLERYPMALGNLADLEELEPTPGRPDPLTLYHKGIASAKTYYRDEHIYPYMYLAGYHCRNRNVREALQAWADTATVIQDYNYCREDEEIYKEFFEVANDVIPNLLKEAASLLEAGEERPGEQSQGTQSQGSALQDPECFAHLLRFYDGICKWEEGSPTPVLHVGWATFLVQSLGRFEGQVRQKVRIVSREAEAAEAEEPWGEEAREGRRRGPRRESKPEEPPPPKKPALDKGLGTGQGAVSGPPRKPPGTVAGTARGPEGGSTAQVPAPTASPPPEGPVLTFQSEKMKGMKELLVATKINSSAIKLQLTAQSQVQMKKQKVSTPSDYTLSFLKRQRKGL
Assay: qHTS Assay for Inhibitors Targeting the Menin-MLL Interaction in MLL Related Leukemias: Competition With Texas Red Labeled MLL-derived Mutant Peptide
Settings: fluorescence polarization; series mostly up to 61.6 µM
Potency is read from the fitted curve at half-maximal effect; tags tell the direction and shape of the fitted curve or compound fluorescence and quenching.

| Structure (SMILES) | Potency |
| --- | --- |
| COc1ccc(NS(=O)(=O)c2ccc(NC(=S)NC(=O)CC(C)C)cc2)cc1 | inconclusive: 14.1 µM [quencher, side channel, partial curve] |
| O=C(Nc1ccccc1N1CCCCC1)c1cccc(Cl)c1 | inconclusive: 14.1 µM [fluorescent, side channel, partial curve] |
| O=C(CCn1c(=O)oc2ccc(Cl)cc21)N1CCN(c2ccccc2)CC1 | inconclusive: 28.2 µM [fluorescent, side channel, partial curve] |
| O=C(N/N=C/c1ccc(OC(F)F)cc1)c1ccc(CSc2nc3ccccc3[nH]2)cc1 | inconclusive: 28.2 µM [quencher, side channel, single point] |
| CCOC(=O)C1(CC2CC2)CCN(Cc2cnc(-c3ccc(OC)cc3)nc2)CC1 | inconclusive: 8.91 µM [fluorescent, side channel, partial curve] |
| O=C(NCCN1CCOCC1)C1(C(F)(F)F)CC(CCCO)CCCO1 (stereo not drawn) | inactive |
| Nc1ccc(/C=C/c2ccc3ncccc3c2)cc1 | inconclusive: 15.8 µM [quencher, side channel, partial curve] |
| O=C(Nc1ccc([N+](=O)[O-])cc1)Nc1nc(-c2ccc(Cl)s2)cs1 | inconclusive: 2.51 µM [quencher, side channel, full curve] |
| C/C=C/c1ccc(OCCCCN2CC(C)CC(C)C2)c(OC)c1 (stereo not drawn) | inconclusive: 11.2 µM [inhibitor, partial curve, poor fit] |
| Cc1ccc(O)c(/C=N/NC(=O)COc2ccc3c(C)cc(=O)oc3c2)c1 | inactive |
| CS(=O)(=O)N1CCC2(CC1)CN(c1ccc(-c3ccccc3)cc1)C2 | inconclusive: 14.1 µM [quencher, side channel, partial curve] |
| CC1CCCCN1CC(O)COCCC12CC3CC(CC(C3)C1)C2 (stereo not drawn) | inconclusive: 14.1 µM [fluorescent, side channel, partial curve] |
| CCC1(C)N=C(N)Nc2nc3cc(C)c(C)cc3n21 (stereo not drawn) | inconclusive: 4.47 µM [inhibitor, single point] |
| CCOc1ccc(N2C(=O)/C(=C/c3cccs3)N(C)C2=S)cc1 | inconclusive: 25.1 µM [inhibitor, partial curve] |
| CCOC(=O)c1cc(C#N)c(=S)[nH]c1C | inconclusive: 35.5 µM [quencher, side channel, single point] |
| O=C(Nc1ccc(Cl)c(Cl)c1)OCc1cnc(Cl)s1 | inconclusive: 25.1 µM [quencher, side channel, partial curve] |
| O=C1Nc2ccccc2C12Nc1ccccc1S2 (stereo not drawn) | inconclusive: 39.8 µM [quencher, partial curve, poor fit] |
| COc1ccc(S(=O)(=O)Nc2ccc(F)cc2)c(C)c1C | inconclusive: 10 µM [inhibitor, partial curve] |
| CCOC1=NN(c2ccc(Cl)cc2)C(=O)/C1=C\N(C)C | inconclusive: 14.1 µM [quencher, side channel, partial curve] |
| CN(C)/C=C/C(=O)c1cnc(-c2ccccc2Cl)s1 | inconclusive: 28.2 µM [quencher, side channel, single point] |

| Structure (SMILES) | Potency |
| --- | --- |
| O=C(CSc1nnc(-c2ccccc2)o1)c1nnc(-c2ccccc2)o1 | inconclusive: 31.6 µM [quencher, side channel, partial curve] |
| COc1ccc(-c2oc3ccc(N4CCOCC4)cc3c2/C=C/c2ccc(OC)c(OC)c2)cc1 | inconclusive: 7.08 µM [quencher, side channel, partial curve] |
| S=c1[nH]nc(-c2ccco2)n1/N=C/C=C/c1ccco1 | inconclusive: 25.1 µM [quencher, side channel, single point] |
| O=C(Nc1ccc(Nc2ccccc2)cc1)C(Cl)(Cl)Cl | inconclusive: 28.2 µM [quencher, side channel, partial curve] |
| Cc1ccc(-c2ccc(=O)n(CCC(=O)NCc3ccccn3)n2)cc1 | inconclusive: 44.7 µM [inhibitor, single point] |
| Cc1ccc(-c2nnn(CC(=O)N(c3ccccc3F)C(C(=O)NC3CCCC3)c3ccncc3)n2)o1 (stereo not drawn) | inconclusive: 35.5 µM [fluorescent, side channel, partial curve] |
| O=C(COC(=O)/C=C/c1ccc(F)cc1)Nc1cccc(S(=O)(=O)N2CCCC2)c1 | inactive |
| Cc1cc(C)cc(C(=O)Nc2ccc(NC(=O)c3cccs3)cc2)c1 | inconclusive: 39.8 µM [inhibitor, single point] |
| O=[N+]([O-])c1ccc2nc(NS(=O)(=O)c3ccc(Cl)cc3)sc2c1 | inconclusive: 15.8 µM [quencher, side channel, partial curve] |
| CCc1ccc(C(=O)OCC(=O)NC2CCCC2)cc1 | inconclusive: 28.2 µM [fluorescent, side channel, partial curve] |
| CCc1ccccc1NC(=O)CSc1nc2[nH]c(=O)cc(O)c2s1 | inconclusive: 39.8 µM [quencher, side channel, single point] |
| COc1cc(C(=O)OCCCN2CCCN(CCCOC(=O)c3cc(OC)c(OC)c(OC)c3)CC2)cc(OC)c1OC | inconclusive: 3.16 µM [fluorescent, side channel, full curve] |
| Cc1ccc2c(c1)N(CC(=O)NCCCN1CCCC1)C(=O)CO2 | inactive |
| C=CCNc1nc2ccccc2nc1NS(=O)(=O)c1ccc(Br)cc1 | inconclusive: 25.1 µM [quencher, side channel, single point] |
| Nc1nonc1-n1nnc(C(=O)N/N=C/c2ccc(Br)cc2)c1CN1CCOCC1 | inconclusive: 1.78 µM [quencher, side channel, partial curve] |
| COc1ccc(NC(=O)c2ccccc2N2C(=O)C3C4C=CC(C5CC45)C3C2=O)c(OC)c1 (stereo not drawn) | inconclusive: 12.6 µM [inhibitor, partial curve] |
| COc1ccc(OC)c(C(=O)NC(CC(N)=O)c2ccc(N3CCN(c4ccccc4)CC3)c([N+](=O)[O-])c2)c1 (stereo not drawn) | inconclusive: 35.5 µM [quencher, side channel, single point] |
| O=C(Nc1nc(-c2ccccn2)cs1)c1ccc(Br)s1 | inconclusive: 25.1 µM [quencher, side channel, single point] |
| CC1(C(=O)O)CC(C)(C(=O)O)CC(C)(C(=O)O)C1 (stereo not drawn) | inactive |
| Cc1ccc(CSc2ccc3nnc(-c4ccccn4)n3n2)cc1 | inconclusive: 25.1 µM [fluorescent, side channel, partial curve] |

| Structure (SMILES) | Potency |
| --- | --- |
| CC(=O)Nc1cccc(NC(=O)c2ccc3c(c2)CCN3S(=O)(=O)c2ccccc2)c1 | inconclusive: 14.1 µM [quencher, side channel, partial curve] |
| COCCN(C(=O)c1snc(C(N)=O)c1N)C(C(=O)NC1CCCC1)c1cc(OC)c(OC)c(OC)c1 (stereo not drawn) | inconclusive: 22.4 µM [quencher, side channel, single point] |
| C/C(CCc1oc2c(Br)cc(Br)cc2c1-c1ccc(C)o1)=N\O | inconclusive: 31.6 µM [quencher, side channel, single point] |
| Cc1cccc(NC(=S)N2CCN(c3ccccc3)CC2)c1 | inconclusive: 39.8 µM [fluorescent, side channel, single point] |
| COCCOC(=O)c1c(C)oc2ccc(NS(=O)(=O)c3cccs3)cc12 | inconclusive: 35.5 µM [quencher, side channel, single point] |
| CCN1C(=O)/C(=C\C=C2/C=CC=CN2CC)SC1=S | inconclusive: 39.8 µM [fluorescent, single point] |
| CC(C)C(=O)Nc1ccc(Oc2ccc3c(c2)C(=O)NC3=O)cc1 | inconclusive: 39.8 µM [inhibitor, single point] |
| COc1cc(/C=N/N2CCN(c3ccccc3OC)CC2)ccc1OC(C)=O | inactive |
| N#Cc1cc(-c2ccccc2)c[nH]c1=O | inactive |
| COc1ccc(C(=O)Nc2ccc(C3CC3(Cl)Cl)cc2)cc1 (stereo not drawn) | inconclusive: 5.01 µM [quencher, side channel, full curve, poor fit] |
| Cc1ccc(-c2csc3ncnc(NCCN4CCOCC4)c23)cc1 | inconclusive: 10 µM [fluorescent, side channel, partial curve] |
| Clc1ncccc1-c1nnn(-c2ccccc2Br)n1 | inactive |
| O=C(CC1SC(=Nc2ccccc2)N(CCCO)C1=O)Nc1ccc(Cl)cc1 (stereo not drawn) | inconclusive: 25.1 µM [quencher, side channel, single point] |
| O=C(Nc1cnn(Cc2c(Cl)cccc2Cl)c1)c1ccc([N+](=O)[O-])cc1 | inconclusive: 3.55 µM [quencher, side channel, partial curve] |
| CN(C)CCCN1c2ccccc2Sc2ccc(C(F)(F)F)cc21 | inconclusive: 5.62 µM [fluorescent, side channel, partial curve] |
| O=C(NCc1ccco1)c1ccccc1NS(=O)(=O)c1ccc2c(c1)OCCO2 | inconclusive: 25.1 µM [quencher, side channel, single point] |
| CCOC(=O)C(CCCOc1ccc(C)cc1)C(=O)OCC | inconclusive: 17.8 µM [fluorescent, side channel, partial curve] |
| C=CCn1c(O)c(CN2CCN(Cc3ccccc3)CC2)c(C)c(C#N)c1=O | inconclusive: 39.8 µM [fluorescent, side channel, single point] |
